Target: T1, recombinant HSP70 (Heat Shock 70 kDa Protein) (human, UniProt P0DMV8)
T1 construct: also called HSP72; human HSP70
Assay: BLI (Octet Red), biotinylated TLR2 on streptavidin sensors, HSP70 in solution, 1:1 model global fit
Protocol: Protein-protein interaction experiments were conducted at 25° C. in PBS with an Octet Red instrument (Forte Bio, Menlo Park, Calif., USA) by biolayer interferometry (BLI). The ligand (cmHSP70 or A8 or TLR2) was biotinylated using EZ-Link NHS-PEG₄-biotin (Thermo Fisher Scientific, Bonn, Germany) according to the manufacturer's protocol and immobilized at a concentration of 20 μg/ml on streptavidin sensors (ForteBio, Menlo Park, Calif., USA). These functionalized biosensors were dipped into black Greiner 96-well microplates agitated at […] and filled with a solution of 200 μL containing the analyte. All sensorgrams were corrected for baseline drift by subtracting a control sensor exposed to running buffer only. Each KD was determined with a 1:1 stoichiometry model using a global fit with Rmax unlinked by sensor (Forte Bio, Data analysis software version 7.1.0.89).
Protein-protein interaction experiments were conducted with an Octet Red instrument (ForteBio, USA). The ligand (A8 or TLR2) was biotinylated using EZ-Link NHS-PEG₄-biotin (2 nM, 30 min, RT, Thermo Fisher Scientific, Germany) and immobilized on streptavidin sensors (96-well plate black, ForteBio, USA). […] Each KD was determined with a 1:1 stoichiometry model using a global fit with Rmax unlinked by sensor (ForteBio, Data analysis software version 7.1.0.89).

B1: recombinant TLR2 (Toll-like receptor 2) (receptor)
chain: not shown
modifications: biotinylated with EZ-Link NHS-PEG4-biotin when immobilised on streptavidin sensors for BLI (site not stated)
notes: also called TRL2; CD282
  Kd: 33 nM

Source: US20170131285A1 (INSERM INSTITUT NATIONAL DE LA SANTE ET DE LA RECHERCHE …, published 2017)
